Among all 310,000 compounds or so, about 14,000 (4.5%) showed an effect of 50% or more. The effect is printed as a negative number. The list shows a part of the results.

Experimental findings from PMC4336329 (PLoS ONE, 2015) are described below.
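Also: peak tail current of the secondary pulse compared with the same well before compound.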

human ether-à-go-go-related gene (hERG) potassium channel, sequence (Q12809 whole entry, looked up): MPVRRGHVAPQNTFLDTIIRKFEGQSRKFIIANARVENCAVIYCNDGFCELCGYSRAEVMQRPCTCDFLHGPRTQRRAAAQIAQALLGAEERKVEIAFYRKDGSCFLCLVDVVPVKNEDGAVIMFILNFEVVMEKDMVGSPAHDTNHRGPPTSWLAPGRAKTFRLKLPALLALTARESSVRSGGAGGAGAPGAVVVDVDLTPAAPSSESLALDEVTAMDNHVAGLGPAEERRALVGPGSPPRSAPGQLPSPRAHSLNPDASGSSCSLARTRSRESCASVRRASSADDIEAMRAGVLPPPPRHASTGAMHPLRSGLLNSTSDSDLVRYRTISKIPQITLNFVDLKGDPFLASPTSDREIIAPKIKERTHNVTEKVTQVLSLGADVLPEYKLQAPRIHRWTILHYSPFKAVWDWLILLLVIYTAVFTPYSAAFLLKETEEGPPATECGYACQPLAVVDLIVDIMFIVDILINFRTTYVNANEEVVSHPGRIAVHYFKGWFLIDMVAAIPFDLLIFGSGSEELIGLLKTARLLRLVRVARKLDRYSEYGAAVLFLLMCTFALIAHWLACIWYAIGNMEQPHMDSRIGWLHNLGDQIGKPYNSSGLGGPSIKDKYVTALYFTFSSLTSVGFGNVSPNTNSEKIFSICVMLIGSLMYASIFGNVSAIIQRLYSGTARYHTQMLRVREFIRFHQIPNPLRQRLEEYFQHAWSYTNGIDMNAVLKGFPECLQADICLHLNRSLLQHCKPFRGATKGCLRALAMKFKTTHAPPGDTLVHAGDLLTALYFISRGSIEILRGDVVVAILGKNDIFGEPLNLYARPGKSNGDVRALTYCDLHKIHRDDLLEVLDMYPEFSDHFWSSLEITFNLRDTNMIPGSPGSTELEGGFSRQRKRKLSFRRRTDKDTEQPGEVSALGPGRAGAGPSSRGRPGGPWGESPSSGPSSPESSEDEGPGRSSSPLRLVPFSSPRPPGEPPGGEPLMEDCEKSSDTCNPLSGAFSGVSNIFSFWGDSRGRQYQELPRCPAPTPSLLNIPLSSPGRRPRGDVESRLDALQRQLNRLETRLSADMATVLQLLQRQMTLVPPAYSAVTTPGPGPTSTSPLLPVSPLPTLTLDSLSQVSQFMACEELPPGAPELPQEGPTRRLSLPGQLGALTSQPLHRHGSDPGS

The assay concerns the target human ether-à-go-go-related gene (hERG) potassium channel (human, UniProt Q12809). Briefly: primary screen, population patch clamp on CHO cells stably expressing hERG.
As for `Cc1ccccc1N(CC(=O)N/N=C/c1cc(C)n(-c2ccccc2C)c1C)S(C)(=O)=O`, the “hERG current change (%, negative = inhibition) at 10uM” value stood at 13.4%. The same measure for `Cc1ccc(CNC(=O)COC(=O)c2cccc(S(=O)(=O)N3CCCCC3)c2)cc1`: -23.5%.

In the case of `Cc1ccccc1NC(=O)COC(=O)C1(C)CC1(Cl)Cl` (stereo not drawn), the “hERG current change (%, negative = inhibition) at 10uM” value is on record as 21.2%. For `COc1cc(CC(=O)OCC(=O)NCC(C)C)cc(OC)c1OC`, the “hERG current change (%, negative = inhibition) at 10uM” value is listed as 16.8%. The same measure for `CSc1ccc(CN(C)CC(=O)Nc2c(F)cccc2F)cc1.O=C(O)C(=O)O`: -8.03%; for `CN1CCC(=NNC(=O)CN(c2cccc([N+](=O)[O-])c2)S(=O)(=O)c2ccccc2)CC1`: 7.36%. With `COC(=O)c1ccc(N2CCCCC2)c(NS(=O)(=O)c2ccc(C)cc2)c1`, the “hERG current change (%, negative = inhibition) at 10uM” value was -17%. The same measure for `Cc1nnc(NC(=O)C(c2ccccc2)c2ccccc2)s1`: 5.66%; for `CCCCn1c(=NC(=O)c2ccc3c(c2)OCO3)c(C#N)cc2c(=O)n3cccc(C)c3nc21`: -5.68%; for `Cc1ccc(NC(=O)COC(=O)c2c(-c3ccccc3)noc2C)cc1`: -6.15%. On to `COc1ccc(NC(=O)C(=O)NCCCO)cc1Cl`, for which the “hERG current change (%, negative = inhibition) at 10uM” value is 9.95%. In the case of `O=C(CN(Cc1ccc(F)cc1)C(=O)c1csnn1)NC1CCCC1` it was 3.86%. As for `COc1ccc(NC(=O)C(Cc2ccccc2)n2cccc2)cc1OC` (stereo not drawn), the “hERG current change (%, negative = inhibition) at 10uM” value is recorded as -7.21%.

For the molecule `CC(=O)c1cccc(NC(=O)c2nc(-c3ccccc3)oc2C)c1`, the “hERG current change (%, negative = inhibition) at 10uM” value is -6.99%. In the case of `Cc1ccc(NC(=O)c2cccs2)cc1NC(=O)c1cccnc1` it was 33.1%; in that of `COc1ccc(/C(N)=N/OC(=O)c2cccs2)cc1OC`, 2.74%; in that of `C=CCn1c(SCC(=O)Nc2cc(C)on2)nc2sc(CC)cc2c1=O`, 1.3%. The same measure for `Cc1cccc(CCNC(=O)c2cc(S(=O)(=O)N3CCCC3)cn2C)c1`: -4.2%; for `O=C(COc1ccc(-c2ccccc2)cc1)N1CCN(S(=O)(=O)Cc2ccccc2)CC1`: -19.3%. As for `CCN(C(=O)CSc1nc2n[nH]c(C)c2c(=N)n1-c1ccc(Cl)c(C)c1)c1cccc(C)c1`, the “hERG current change (%, negative = inhibition) at 10uM” value turned out to be 8.36%. The same measure for `COc1ccc(/C=C(\C#N)C(=O)NCC2CCCO2)cc1OC` (stereo not drawn): 0.277%; for `C=CCc1cccc2cc(C(=O)NC3CCCC3)c(=O)oc12`: -0.443%. The same measure for `COc1ccccc1CN1CC(C(=O)NCCCc2ccc(F)cc2)CCC1=O` (stereo not drawn): -41%; for `O=C(Cn1cnc2ccccc21)c1ccc(Cl)cc1`: 1.77%; for `COC(=O)CCc1ccc(O)cc1`: 7%.

Take `CC(=O)c1cccc(NC(=O)C2CCCN(S(=O)(=O)c3ccccc3)C2)c1` (stereo not drawn): the “hERG current change (%, negative = inhibition) at 10uM” value is -26.8%.

`CC1=CC(C)C2(CO)COC(c3cccnc3)C1C2C` (stereo not drawn): the “hERG current change (%, negative = inhibition) at 10uM” value was -9.23%. Consider `CC1Cc2ccccc2N1C(=O)CCN1C(=O)C2C3C=CC(C3)C2C1=O` (stereo not drawn), for which the “hERG current change (%, negative = inhibition) at 10uM” value turned out to be 2.41%. The same measure for `CCOc1ccc(N2CC(C(=O)N/N=C/c3sccc3C)CC2=O)cc1` (stereo not drawn): -16.6%; for `CCCN(CCO)Cc1ccc(Br)cc1`: -6.08%. In the case of `CN1C(=O)C2(N=c3ccccc3=N2)c2ccccc21` it was -17.8%; in that of `COc1ccc(N2CCN(Cc3nc4c(c(=O)n(C)c(=O)n4C)n3CC(C)=O)CC2)cc1`, -7.01%. For the molecule `COc1ccc(OCCC(=O)OCC(=O)NCCC2=CCCCC2)cc1`, the “hERG current change (%, negative = inhibition) at 10uM” value is recorded as 10.9%.

For the molecule `Cc1cnc(NC(=O)Cc2cccs2)s1`, the “hERG current change (%, negative = inhibition) at 10uM” value amounted to 23.1%. The same measure for `Cc1ccc(S(=O)(=O)n2nc(C)c(C#N)c2N)cc1`: -1.64%; for `Cc1csc(NC(=O)c2cc(-c3ccco3)nc3ccccc23)n1`: -10.8%; for `O=C(/C=C/N1CCOCC1)c1cc2ccccc2o1`: 1.21%.

For `COc1cccc2cc(C(=O)N3CC(C)OC(C)C3)c(=O)oc12` (stereo not drawn), the “hERG current change (%, negative = inhibition) at 10uM” value turned out to be 9.7%. For the molecule `O=P([O-])(CN1CCCCCC1)C1Cc2ccccc2C1`, the “hERG current change (%, negative = inhibition) at 10uM” value was found to be 19%.

Regarding `O=C(COc1ccc([N+](=O)[O-])cc1)NCCC1=CCCCC1`, the “hERG current change (%, negative = inhibition) at 10uM” value is recorded as -35.2%. As to `O=C(N=C1SC2CS(=O)(=O)CC2N1Cc1ccc(Cl)cc1)C1CCCO1` (stereo not drawn), the “hERG current change (%, negative = inhibition) at 10uM” value is 14.3%. For `C/C(=N\NC(=O)c1cc(C2CC2)nc2ccccc12)c1ccc(O)cc1O`, the “hERG current change (%, negative = inhibition) at 10uM” value is recorded as -17.1%.

For `COc1ccc(C)cc1NC(=O)C1CCN(S(=O)(=O)c2c(C)noc2C)CC1`, the “hERG current change (%, negative = inhibition) at 10uM” value is -4.69%. In the case of `O=C(N1CCOCC1)N1CCN(c2ccccc2)CC1` it was 4.81%; in that of `Cc1cccc(NC(=O)CSc2cccc3cccnc23)c1C`, 5.81%; in that of `COC(=O)c1c(NC(=S)NNC(=O)c2ccc(Cl)s2)sc(C(=O)N(C)C)c1C`, 18.2%. In the case of `CC1(C)c2[nH]c3ccccc3c2C[C@H]2C(=O)N(CCCO)CC(=O)N21` it was 18.1%. As to `COc1cccc(CNC(=O)C2CCCN(S(C)(=O)=O)C2)c1` (stereo not drawn), the “hERG current change (%, negative = inhibition) at 10uM” value is reported as 4.36%. In the case of `O=C(c1cnn(C(=O)c2ccccc2F)c1)c1ccccc1O`, the “hERG current change (%, negative = inhibition) at 10uM” value is given as -13.9%. In the case of `Cc1ccc(C)c(-n2c(CNc3ccc(F)cc3)nnc2SCC(N)=O)c1` it was -18%; in that of `Cc1cc(NC(=O)C(=O)NCc2cccc(Cl)c2)no1`, -1.38%. The same measure for `COc1cccc(CCNC(=O)COc2cccc3c2OC(C)(C)C3)c1`: -6.6%; for `CC(C)(C)c1ccc2c(c1)N(CC(=O)N1CCCC1)C(=O)CO2`: 17.3%. Regarding `C/C(=N\n1c(C)cc(C)c(C#N)c1=O)c1cccs1`, the “hERG current change (%, negative = inhibition) at 10uM” value is -4.62%.

As to `O=c1c2ccccc2nc(-c2ccccc2)n1/N=C/c1ccc([N+](=O)[O-])cc1`, the “hERG current change (%, negative = inhibition) at 10uM” value was 12.9%. The same measure for `C/C(=N/NS(=O)(=O)c1ccccc1)c1ccc(Cl)cc1`: -4.18%; for `N#Cc1ccc(COC(=O)CC(NC(N)=O)c2ccc(Cl)cc2)cc1` (stereo not drawn): -59.9%. On to `CN1CCN(S(=O)(=O)c2cccc3nsnc23)CC1`, for which the “hERG current change (%, negative = inhibition) at 10uM” value worked out at 11%. In the case of `O=S(=O)(c1ccc(-n2cnnn2)cc1)N(C1CCCCC1)C1CCCCC1` it was 7.19%; in that of `COc1ccc(S(=O)(=O)NC(CC(=O)O)c2ccco2)cc1` (stereo not drawn), -0.532%; in that of `COc1ccc(Br)cc1CN(C)C(=O)Cc1ccc(S(=O)(=O)N2CCOCC2)s1`, -70.4%. The same measure for `CCOc1ccc(NC(=O)c2cc([N+](=O)[O-])ccc2N2CCOCC2)cc1`: -55.5%. The same measure for `Cc1ccc(S(=O)(=O)NCCC(=O)Nc2nnc(C)s2)cc1`: -3.9%; for `CCSc1cc(N2CCCC2)nc(-c2ccc(C)cc2)n1`: 15.3%. `O=C(CN1CCOCCOCCOCCOCC1)Nc1ccccc1`: the “hERG current change (%, negative = inhibition) at 10uM” value was 1.06%. The same measure for `O=C(CNC(=O)c1ccccc1Cl)Nc1ccc(F)cc1`: -4.76%. In the case of `Cc1ccc(OCC(=O)Nc2nnc(S(=O)(=O)N3CCCCC3)s2)cc1` it was 9.62%. The same measure for `Cc1c(CN2CCC(n3nccc3NC(=O)C3CCOC3)CC2)[nH]c2ccccc12` (stereo not drawn): -30.6%; for `NC(=O)CSc1nnc(C2CC2)n1Cc1ccccc1`: 2.65%; for `COCCCNC(=O)c1cc2c(=O)n3cccc(C)c3nc2n(C(C)C)c1=N`: -65.5%.

Regarding `CCOC(=O)c1sc2ncnc(Nc3cccc(C(=O)O)c3)c2c1C`, the “hERG current change (%, negative = inhibition) at 10uM” value was determined as 21.7%.

Turning to `COC(=O)c1ccccc1NC(=O)c1cccc(NC(=O)CSCc2ccccc2)c1C`, the “hERG current change (%, negative = inhibition) at 10uM” value is -5.9%.

In the case of `O=C(c1ccco1)N1CCN(C(=O)c2cc(-c3ccccn3)nc3ccc(Cl)cc23)CC1`, the “hERG current change (%, negative = inhibition) at 10uM” value was -16.7%.

For the molecule `O=C(CSc1nnc(NC(=O)C2CC2)s1)Nc1cccc(F)c1`, the “hERG current change (%, negative = inhibition) at 10uM” value is 25.7%. In the case of `COc1cc(NC(=O)C2CC(=O)N(Cc3ccco3)C2)c(OC)cc1Cl` (stereo not drawn) it was -14.9%; in that of `N=c1c(C(=O)NC2CCCC2)cc2c(=O)n3ccccc3nc2n1C1CCCC1`, -82.2%; in that of `COc1ccc(NS(=O)(=O)c2cnc[nH]2)cc1`, 17.4%. On to `CC(C)(C)OC(=O)N1CCC(NC(=O)c2[nH]cnc2C(=O)Nc2ccc(Cl)cc2)CC1`, for which the “hERG current change (%, negative = inhibition) at 10uM” value is recorded as 18.3%.

Regarding `Cc1ccc(-n2nnnc2SCn2nnc3ccccc3c2=O)cc1`, the “hERG current change (%, negative = inhibition) at 10uM” value is given as -6.18%. On to `Cc1ccc(NC(=O)CCc2ccc(S(=O)(=O)N3CCOCC3)cc2)c(C)c1`, for which the “hERG current change (%, negative = inhibition) at 10uM” value is reported as 3.85%.

With `COC(=O)c1c(NC(=O)CN2CCN(c3ncccn3)CC2)sc(C(N)=O)c1C`, the “hERG current change (%, negative = inhibition) at 10uM” value is 6.53%. In the case of `CN(c1ccccc1)S(=O)(=O)c1ccc2ccccc2c1` it was 25.8%; in that of `COc1nccnc1NS(=O)(=O)c1ccc(NC(=O)c2cccc(C)c2)cc1`, 9.78%. As for `Cc1cccc(-n2ccnc2SCC(=O)Nc2nccs2)c1C`, the “hERG current change (%, negative = inhibition) at 10uM” value was 7.98%.

For `CCCCOC(=O)N1CCOCCOCCN(C(=O)OCCCC)CCOCCOCC1`, the “hERG current change (%, negative = inhibition) at 10uM” value is -23.5%.

As to `Cc1cccc(C)c1OCC(=O)Nc1cc(Cl)ccc1-n1cncn1`, the “hERG current change (%, negative = inhibition) at 10uM” value is given as 2.54%. In the case of `COc1ccc(C(=O)c2c(-c3ccc(OC)cc3)oc3ccc(-c4cc(OC)c(OC)c(OC)c4)cc23)cc1` it was 9.05%; in that of `CC(=O)NN1C(=O)c2ccccc2NC1c1ccccc1F` (stereo not drawn), 12.7%. The same measure for `O=C(Nc1cc(=O)[nH]c(=O)[nH]1)c1cccc(C(F)(F)F)c1`: 10.1%; for `COc1cccc(C(=O)NNc2nc(C)cc(C)n2)c1`: 14%.
